Results published in the supplement of paper PMC10681739.
The full ranking holds about 2,700 sequences; the median of “arbitrary fluorescence units” is about 4,100, and the highest 2% start at about 54,000. The list shows a part of the results.

Molecular target: T1, ETS1 (UniProt P14921)
T1 sequence: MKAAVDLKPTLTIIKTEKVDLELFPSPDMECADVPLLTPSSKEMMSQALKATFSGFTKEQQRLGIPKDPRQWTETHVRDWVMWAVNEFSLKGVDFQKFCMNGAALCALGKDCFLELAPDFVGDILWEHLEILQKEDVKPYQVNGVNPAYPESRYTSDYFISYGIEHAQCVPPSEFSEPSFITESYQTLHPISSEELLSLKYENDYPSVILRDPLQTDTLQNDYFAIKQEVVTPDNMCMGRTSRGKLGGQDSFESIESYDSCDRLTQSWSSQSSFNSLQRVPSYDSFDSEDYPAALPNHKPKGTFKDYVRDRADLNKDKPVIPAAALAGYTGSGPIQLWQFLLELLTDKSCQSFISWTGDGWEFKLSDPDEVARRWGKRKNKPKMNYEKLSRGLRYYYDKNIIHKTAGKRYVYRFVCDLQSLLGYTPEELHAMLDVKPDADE
Test: ETS1 binding intensity (PBM fluorescence) (arbitrary fluorescence units); higher = stronger binding
Conditions: ETS1 concentration 10 nM
Protocol: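 gcPBM on wild-type 36-bp genomic probes with two neighbouring ETS1 sites (4-24 bp apart). Recombinant human ETS1 (10 nM) was detected with anti-ETS1 antibody fluorescence. Values are medians over 3 replicate spots. The probes sit in constant array flanks that are not printed.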

| Sequence | ETS1 binding intensity |
| --- | --- |
| GCGCAGCGGAACCTCCCGGCTCCAGGTTCCGGTTTC | 537 |
| CCACCATGACTTCCTTCAGCACTTCCTGTCTAGAGC | 24000 |
| CCCGGGCTTTTCCTGCGGAGCTCAGGAAGCCGGCCT | 1470 |
| TGAGAGCAGAGCAGGAAACGGGAAGAACCATTCTCT | 1540 |
| ACACCTTCCGGCAGATGTGGGGCGATGAGGAAGTTG | 16100 |
| AGTTCTGACTTCCTGCTGAAGGCTTCCTCACATTGA | 20200 |
| ACCTGCATTCTACTTCCTGTTTCCTACTTTAAAGTG | 31700 |
| GTCACCACATCCTGAGGCTTCTCATTTCCTTTCTAC | 6290 |
| CTGCTGGCAGGGAGGAAGCAGGAAATTAAACGGTGT | 1260 |
| TCGGCCGGAAGCGGAGGGAGCGCTGCTTCCGGAGTC | 15800 |
| CATCAACAGGAAGTGGCAGGGCCAGGATGGACTTGA | 17200 |
| TGCAAAGCATCCTGGGTGCCAGGCTTCCTGGGGCTT | 1890 |
| CTCTTGAAAGCTTCCGAGGAGAGGAAACGTACTTCA | 256 |
| ACCACATCCTCCCCCACAGCCCTCAGGAGGAAGCGG | 9350 |
| CGAGGGCGGGGACTTCCCCAGGAAGCGGGGACCCAC | 448 |
| CCGCGCCCCTTCCGCGCAGTCTCCTTCCGCGTCACC | 761 |
| AGAACGTTTCCGCGGCCTGCCTGTCTTCCGGGCCTT | 2910 |
| GACTACGTTTCCTTGGCCTTAGAAGGAAACAGCCAC | 615 |
| TTCTACATCCTGCTTCTTATAGGACCCGGAAGAGGA | 28000 |
| AAGAGGAAACAGGTGTGTAAAGCCAGGCTTCCTCTC | 208 |
| AATTCAGGAAACAACAGATGCTGGAGAGGATGTGGA | 405 |
| CTACAGGAAGTCACGACAGACAACAGAGGAAGTCCA | 10600 |
| ACCGAGGGGAAGTTGGGGTACCGGTTTCCGCCGCCA | 1300 |
| TTTTCTCCCTCACTTCCGCTTCCGCCTCGGCTCAGC | 34300 |
| TCGCTGAGCAGGAAAAGCTAGTTTCCGCCGTCTGGG | 1640 |
| CTTTAATCCGGTTTCTTCTCCCCTCTGGGAAGTTTC | 2590 |
| GCAGAGGAAGCCTCTCCACGGCTGGACTTCCTACCG | 258 |

| Sequence | ETS1 binding intensity |
| --- | --- |
| TCCCGCCCCCGGCCGGAAGTTCCGGCGGCGGAGCTG | 14900 |
| GAAATAGGAAGTGAATGTGAAAGCCTAGGATGTTAC | 2210 |
| GTAGTCCGCCGTTCCGCCGCGCTTCCGGACACGTCC | 2920 |
| TAATTGGGGAAGTGGTTTTGGGGACAGGAAGCCAGT | 487 |
| CCCGCATCCGCTGCGGGAGTCCGAGCCGGAACCACA | 19800 |
| GCAGTACGGGAAATAAACACACACAGGAAGTCGTTT | 2620 |
| ATTCTCATCCTGTTAGTCATTCAACAGGAATGATTT | 7490 |
| CGCGACTTCCGTGCAGCCCTAGCCACTTCCGGCGCG | 21700 |
| CGGGACCGGAAGTGACGCAGAGAAGTTTCCGGGACT | 56800 |
| TTTCTCCTTCCTGATCCCAATTTTCAGGAAGCTCAC | 1310 |
| TTTTTTTTCTTCCTGCTAAGAACAGGAAATTGCAGA | 3580 |
| CCCACCAGGAAACCAGCACACCTGGCTTCCTTCTTT | 638 |
| GAGGGTAACTTCCTGTTTCTGCCTTCCGGGTTTGAG | 47100 |
| CAGGCAGGAAACACCTGTCTGGTGGCTTCCTGTGAC | 5170 |
| TTGCAGCCTTTTCCGGGCGGCTTTTCCGCGCAGGCG | 3280 |
| TAAAAAGGAAACAACAGGTGCTGGAGAGGATGTGGA | 222 |
| TTTAGGTGTTTCCTGGTTAGTGACTTCCTCTTTGCA | 7310 |
| TCATACCGCGGCCGGAAACCGGAAGCGCCCGCCGGG | 11900 |
| ACTGACAGGAAATAAATAATAAAAAGGGAAATGCAC | 10100 |
| CTGCCGGAAGTTGGGGCGGTGCCTTCGCTTCCGCGG | 16300 |
| GGGTTGGGAAAGTTTCCTCTTTCCGCCGTTTGGAAT | 1760 |
| TTACCGCCACTTCCGGGGGCGCAGGAAATGCGCGTT | 35600 |
| CGGGCGGAAAGGGAGCTAGAGCATTCTGGGAAATGG | 178 |
| CGTGGCAGGATGTGGTTGACCTGAACTTCCTGTGAA | 7490 |
| GAGCCCAGGAAGGAGGCTCCGCTGGTTCCGCTGGGT | 264 |
| CCGGTTCCGGCCAGGAACGGGAAGTGCCTCATTATA | 8430 |
| GGACCGGAAGTGCCTCCTGCGGAGGCAGGAAGTCCC | 58700 |

| Sequence | ETS1 binding intensity |
| --- | --- |
| GTCACAACACAGGATGTTGCGAGGAAACAAGGGTGG | 4890 |
| CCCAGCCTGCCATCCTGTCAGAGGAAATGAAATGTA | 2820 |
| GCGGCCTTCCTGGGGACAGATGATAACATCCTGTTC | 4570 |
| ACCCGTGAGGATGTGGGGGTTGAAAGGAAACAGTGT | 387 |
| CCTGTCACTTCCTGGACGCTGGTCAGGAAGCTGTGG | 13500 |
| CGTCCGCGATGGCGGAAGCGGAAACGCGCGGAGGCG | 4190 |
| TCAACAGGAACTTAGAGGCGCAGGCCCGGAAAAGGC | 397 |
| ATTGCCAACAGGAAAACCATCACTTCCTGCCTTATT | 6780 |
| CTCCCGGAAACAATTTTTCCCTAGACCCGGAAGCAG | 3510 |
| GCCCACATCCGGCCCCTCCTTGCCCCGGAACCTCCT | 70100 |
| ACCTGCCACTTCCTCCTTCAGTCAGGATATGACTTC | 17700 |
| CCGGCCACTTCCGACGCAAGAACCGGAAGCCATGGC | 17000 |
| GCCGCCGGGTGTCGGAAGCGGATGTATGTGACCGCC | 2720 |
| GCGACGGAAGTGACGTCAGACACAGCGCTTCCGGCG | 16700 |
| CCGGCTTGGTTTCCTCGCTTTAGGAAACTCTCTTGG | 245 |
| GCCCCACTTCCCTCCCGCGGTCACACTTCCGGCGGC | 12500 |
| TGCGCCCCGTGCTTCCTGCCATCCTGTGCTCTCTGC | 9740 |
| CTTTTTTTTTCTTCCTGAGACAGGAAGTCCCAGGCT | 3330 |
| GGGCTGACCCAACTTCCTCCGGAAGGGGCGCTCTGC | 4080 |
| ACACAGGATGGTGACTGCTGTCTCATACATCCTGCT | 605 |
| CAACAGGAAGTCGGCACCACTACACCACTTCCGCTT | 18600 |
| AGCCGTGGTTCCGGGTCTGCAATGTTCCGGCGTGGG | 1010 |
| TACACCCGGAAGTGTCTTCAGGGAGAGGAAGCCGGC | 12800 |
| CCACAGGAAGTAAAAAATGCCATTTTACTTCCTCTG | 5330 |
| GGCTGTTGGCAGGAAGCCTCACTTCCTTGCCACATG | 2790 |
| TGGTAGCCAGGAAGTGGAGCAACAGGAACTCTCATT | 4270 |
